Results as given in PubChem BioAssay AID2100 (National Center for Advancing Translational Sciences (NCATS), 2009).
The whole screen tested about 300,000 compounds, of which about 1,200 (0.4%) were called active. Inconclusive means that the source gave no clear call. Such entries were picked first, then a sample of the others. The call rests on the fitted dose curve; in most records, active means well fitted inhibition curve with a large enough effect; inconclusive means small, poorly fitted or top-dose-only effect, or another doubt; inactive means no such curve, though single readings can be large or run the other way. Potencies of inconclusive entries are doubtful fits and often do not repeat.

molecular target: Lysosomal alpha-glucosidase (Homo sapiens) (UniProt P10253); experiment: qHTS Assay for Inhibitors and Activators of Human alpha-Glucosidase Cleavage of Glycogen; conditions: recombinant GAA, glycogen substrate, Amplex Red glucose oxidase fluorescence; activity change, negative = inhibition: at 76.4 µM (top of the series) unless noted;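 on activity change, negative = inhibition: 0% = full enzyme reaction and -100% = no-enzyme basal signal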
How it was run: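 Recombinant human enzyme (4 nM); glycogen substrate; 37 C, 40 min, pH 5.0. Readout: coupled glucose oxidase/Amplex Red fluorescence.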
Potency means the concentration at half of the fitted maximal effect.

| SMILES | Potency | activity change, negative = inhibition |
| --- | --- | --- |
| O=[N+]([O-])c1cccc(-c2n[nH]c(=S)n2Cc2ccccc2)c1 | inconclusive: 56.2 µM [inhibitor, single point] |  |
| O=C(CN1CCN(c2ccccc2)CC1)N1CCc2[nH]c3ccccc3c2C1 | inconclusive: 24.9 µM [inhibitor, single point] |  |
| CCN(CC)c1ccc(NC(=O)C2CCCN(S(=O)(=O)c3ccc4c(c3)oc(=O)n4C)C2)c(C)c1 (stereo not drawn) | inconclusive: 11.2 µM [inhibitor, single point] |  |
| O=C(NNC(=S)Nc1ccc(F)cc1)c1cccc([N+](=O)[O-])c1 | inconclusive: 39.5 µM [inhibitor, partial curve] |  |
| CN(C)N1C(N)=C(C#N)C(c2cccc3ccccc23)C2=C1CC(c1ccccc1)CC2=O (stereo not drawn) | inconclusive: 35.5 µM [inhibitor, partial curve] |  |
| COc1ccc(N2CCN(C(=O)c3ccc(CS(=O)c4cccc(C)c4)o3)CC2)cc1 (stereo not drawn) | inconclusive: 56.2 µM [inhibitor, partial curve] |  |
| C/C(=N\NC(=O)c1cccc(N/N=C(\C)c2ccccc2)c1)c1ccccc1 | inconclusive: 28.2 µM [inhibitor, single point] |  |
| CC1(C)CC(NC(=O)c2ccncc2)CC(C)(C)N1O | inconclusive: 25.1 µM [inhibitor, single point] |  |
| CCOc1cc(C2NC(=O)NC(C)=C2C(=O)OC(C)CC)cc(Br)c1O (stereo not drawn) | inconclusive: 28.2 µM [inhibitor, partial curve] |  |
| COc1cc(/C=N/NC(=O)C2COc3ccccc3O2)ccc1O (stereo not drawn) | inconclusive: 14.1 µM [inhibitor, partial curve] |  |
| Cc1cccc(C(CC(=O)O)NC(=O)C(F)(F)F)c1 (stereo not drawn) | inconclusive: 3.98 µM [inhibitor, partial curve] |  |
| Cc1ccc(S(=O)(=O)NNC(=O)Nc2ccccc2F)c(C)c1 | inconclusive: 28.2 µM [inhibitor, single point] |  |
| CCn1c(C)nc2cc(C(=O)NNC(=S)Nc3ccc(Cl)cc3)ccc21 | inconclusive: 31.6 µM [inhibitor, single point] |  |
| CCN1C(=O)N/C(=C/c2ccc(C)o2)C1=O |  | inactive: -15.1% |
| COc1ccc2c(c1)c(C(=O)O)c(C)n2-c1ccccc1 |  | inactive: 5.18% |
| O=C(/C=C/c1ccc(O)c(O)c1)OC(Cc1ccc(O)c(O)c1)C(=O)O (stereo not drawn) | active: 2 µM |  |
| O=C(NNS(=O)(=O)c1ccc(F)cc1)c1ccc(S(=O)(=O)N2CCCCC2)cc1 | inconclusive: 24.9 µM [inhibitor, single point] |  |
| N#CC(=C=[N-])c1nc2ccccc2nc1-[n+]1cccc(NC(=O)c2ccc(F)cc2)c1 |  | inactive: 2.38% |
